# Some of the results follow.
# System: PF3D7_0420300 AP2 domain 1 (GST-tagged)
# Assay: gcPBM binding intensity (ln(normalized median fluorescence intensity)); higher = stronger DNA binding
# Summary of the method: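 Probes on an Agilent 4 × 180k array were primer-extended, double-stranded and 36 bp long, taken from intergenic genomic regions, with negative controls added. GST-tagged P. falciparum DNA-binding domains from E. coli, about 25 μg on average, were applied to the array for 1 h in 1× PBS containing 1% milk, 0.2 mg/ml BSA, 0.5% salmon testes DNA and 0.03% Triton X-100. Binding intensity, obtained after Alexa488 anti-GST antibody detection and a 488 nm scan, is the highest Masliner-normalised natural-log median intensity across replicate spots of either probe orientation.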
row,Sequence,gcPBM binding intensity (ln)
1,TAAGTGTATGTATATAAACACACATACATATATATA [CACACA_site8397],9.28
2,TAATTTAAAAATTCCTGTACTCAGTTTTTTCTATTT [XGTACX_site4961],9.3
3,TATAAAATTATTAAACAAGAAAATTTTAGGTAATAC [TGCATGCA_negctrl_site568],9.33
4,TATAATATATTTTGATGTACAAATATATTATATATA [XGTACX_site8633],9.01
5,ATAATATATTTTTGAACACACAATATATATATATAT [CACACA_site4124],9.28
6,TTGATAAAACGTTATGCACACGTACGTGGGTATTTA [CACACA_site8445],9.2
7,AGTATACACGAACACACACACACATATATAAATATA [CACACA_site6913],10.3
8,TAAAGTATTACAACCACACACACACCCATATATTAT [CACACA_site4159],10
9,TTAATAATGTTTTATTGTACTTTTTTGTGGGTTTAT [XGTACX_site5670],9.58
10,ATATGTATTGGAGTGTGTACATATATATATATTTAT [XGTACX_site5633],9.52
11,GTGCTACATCATATGTGTACATATACCAAACTGTAT [XGTACX_site8233],9.42
12,ATATACATTCAAGGCTGTACACTATATTTTTTTTTT [XGTACX_site6514],9.57
13,TTTGTGTAAAGAATCAGTACATATAATATATATATA [XGTACX_site1972],9.17
14,ATTTTTTTATACAATTTTATATATTAAATATTATAA [GTGCAC_negctrl_site86],9.04
15,TGTATTTTTAACATATGTACGAATAGCACGTGTTAT [XGTACX_site3640],9.32
16,TAAAAATGGGAGGGGTGTACTACACAATAAAATTAT [XGTACX_site5641],9.59
17,CTTGACCCCCTTTGTTGTACTGACATTTGTGAGCTT [XGTACX_site591],9.38
18,ATTTTTTCAAAATGGAAAACTTATCAGTGAAAAAAA [CACACA_negctrl_site1087],8.97
19,TATTTTATATGATAGGTGCATTTTTTTTTTTTTTTT [GTGCAC_site9757],9.2

row,Sequence,gcPBM binding intensity (ln)
1,TTTAAAAAAATTCATGCACACGAAATAAAAAGCACC [CACACA_site8214],9.71
2,TCTTTTATGCACATTGAGTAAACAACATATTTTTAA [TGCATGCA_negctrl_site561],9.12
3,TTTTTTATTAAAAGTAGTACACATGAAAAAAAAAAA [XGTACX_site5524],9.15
4,TTAATATAGATATAACCACACACATACATCTAATTC [CACACA_site8519],9.82
5,ATTTTTATAGAAATATGTACACAATATGTATATATT [XGTACX_site7993],9.09
6,TTTGTTGACAGACACACACACATACATATATATATA [CACACA_site2288],9.83
7,TATAATAATATAATGGTGCATGTATATAACCATATA,9.26
8,AAATAAATATAAATAAATAAATAAATAAATATATAT [CACACA_negctrl_site827],9.37
9,TCTTACGGATTCATTGTGCACATATATATATATATA [GTGCAC_site9896],9.51
10,GCTCTTTTGTTATGGTGTACCCTCCATGTAACATAA [XGTACX_site91],9.4
11,TTAATAATTCTTAAAAGTACATAACTTTTTTTTTTT [XGTACX_site751],8.77
12,TATATATAATTCATACATTTTAAATATATTTATTTA [CACACA_negctrl_site840],8.96
13,TTTTAAAAACGGCATGCATGTAATACATGGAAGGAA [TGCATGCA_site480],9.45
14,ATGTGATAGAAGTACACACACATATGTATTTATAAT [CACACA_site5075],9.69
15,TGTTTTATTTTTTTTGTGCACATACCTTTAGCATCA [GTGCAC_site9812],9.36
16,TAATTATAATAAATATTCATATGTTCAAATATATAT [CACACA_negctrl_site151],9.09
17,TAGAAGTACATATATGCATGTTAATTTTAAAGGAGG [TGCATGCA_site538],9.22
18,ATTAAAAATATTAGTTGTACTTTATATTTTCATATA [XGTACX_site3614],9.17
19,ATATATATATAGTGTTGTACATTTAAAAATAATATA [XGTACX_site2627],9.22

row,Sequence,gcPBM binding intensity (ln)
1,AATCAAAATAATTTAACACACAATTTTAATACTGTT [CACACA_site2375],9.33
2,AAATTCCATGAAAAAAGTACTAATTAATACAATATA [XGTACX_site2877],9.28
3,TTTAAGAATTAACGGGGTACAATTCTTAAATATATA [XGTACX_site669],9.15
4,TTTTCTTACATGAGTGTACACACTTTTTTTCAGAAA [CACACA_site70],9.15
5,TTTATATAATTTTAATGTACATATATATATATAAAT [XGTACX_site4381],8.98
6,TATCTATAATATTATACACACATATATGCATAATAT [CACACA_site6175],9.48
7,TTCTTCACATACACTTCAAAATTTGATAAAACATTA [CACACA_negctrl_site472],9.08
8,TAATAAATAAGATTCACACATATTTAAATGTTATGC [CACACA_site5275],9.11
9,TTATTTGAATAATGTTTGCACTTAGAGTATTTTATA,9.1
10,ATATATCATAAATAAATGAAAATATTTTCTATGTGT [CACACA_negctrl_site689],9.28
11,GTATATAATTTTTTTTTTTTTTTCATTCTTTTCCTT [CACACA_negctrl_site1780],9.28
12,AAATATATGAAATATACACACTTCTTTGGTATTATT [CACACA_site4414],9.49
13,ATGAATTGACCATATTGTACATATTTAGGACTTACC [XGTACX_site8072],9.18
14,TATATATTTTTTTCAAGTACACATTACAGTTACATA [XGTACX_site2713],9.22
15,ATGTTTTCTCTTTCGGTGCATTGTTTTCTATACTTT [GTGCAC_site9483],9.93
16,ATTCGATGTTTTAAATGTACACAAATTGAAGGAATA [XGTACX_site409],9.02
17,TTATATTTTATATTTACACACATTTATATTTATAAA [CACACA_site203],9.39
18,TTTATAATTTTAAAATGTACAAGGAGGAAAAATTCT [XGTACX_site422],9.09

# From the supplement of paper PMC11417369
